Assay results reported in PubChem BioAssay AID1508642 (National Center for Advancing Translational Sciences (NCATS), 2021).
About 200 (0.47%) of roughly 43,000 compounds were called active. Roughly 12% stayed inconclusive and do not appear here. Calls follow the shape of the dose curve; as a rule, active = well fitted cell-killing curve with a large enough effect; inconclusive = small, poorly fitted or top-dose-only effect, or effect the other way; inactive = flat fitted curve, though single readings scatter. This is one part of the list.

Experiment: Cell viability qHTS assay in S16 Pmp22-F2sN cells; also: nearly all actives have a fitted effect of over 65% in size
Details: S16 Pmp22-F2sN Schwann cells (luciferase reporters placed in the Pmp22 gene) viability, CellTiter-Glo, 24 h; series mostly up to 57.5 µM; activity change, negative = cytotoxicity: at the top concentration
Summary of the method: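 CellTiter-Glo counter-screen, qHTS, 1536-well. Cells: S16(c9) Pmp22-F2sN, 500-1,000/well in DMEM + 10% FBS. Cpd 23 nL pin transfer, 24 h, 37C/5% CO2. Read: luminescence, CCD imager.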
% is scaled to controls: 0 for no effect and ±100 for the full control effect.

Row | Structure (SMILES) | activity change, negative = cytotoxicity
1 | COc1cc(OC)c(NC(=O)Cn2c(SCc3ccccc3F)nc3cccnc32)cc1Cl | inactive: 10.9%
2 | CCOC(=O)c1ccc(NC(=O)COc2cccc3c(=O)n(C)ccc23)cc1 | inactive: -27.7%
3 | O=S(=O)(c1ccc(F)cc1)N(Cc1nc(-c2ccccc2)no1)C1CCCCC1 | inactive: -0.259%
4 | COc1ccc(NC(=O)CN2CCN(CC(=O)Nc3ccccc3F)CC2)cc1OC | inactive: 3.11%
5 | Cc1oc(-c2ccccc2Cl)nc1CS(=O)CC(=O)NCc1ccccc1Cl (stereo unspecified) | inactive: 2.05%
6 | Cc1ccc(-n2nc(C(=O)Nc3ccc(Br)cc3C)c(=O)n(C)c2=O)cc1 | inactive: 5.43%
7 | COc1ccccc1CNC(=O)CSCc1nc(-c2ccc(OC)c(OC)c2)oc1C | inactive: -25.8%
8 | COC(=O)c1ccc(NC(=O)C(=O)NCCc2csc(-c3ccc(C(F)(F)F)cc3)n2)cc1 | inactive: 2.87%
9 | Cc1cc(Cl)ccc1OCC(=O)N1CCC(c2nc3ccccc3o2)CC1 | inactive: -5.56%
10 | O=C(COc1ccc(F)cc1)Nc1ccc(C(=O)OCc2cc(=O)n3nc(C4CC4)sc3n2)cc1 | inactive: 8.76%
11 | CCOc1ccc(NC(=O)N2CCC(c3ccc(C)cc3)C2)cc1 (stereo unspecified) | inactive: 0.219%
12 | Cc1ccccc1NS(=O)(=O)c1ccc2[nH]c3c(c2c1)CCCCC3 | inactive: -22.1%
13 | CCOC(=O)c1cc(-c2ccccc2)n(CCC(=O)Nc2nc3c(C)cccc3s2)c1C | inactive: 0.885%
14 | CC(C)CCOc1ccccc1Cn1c(=O)sc2ccccc21 | inactive: 1.17%
15 | CC(=O)N1c2c(cc(Br)cc2S(=O)(=O)N2CCN(c3ccccc3)CC2)CC1C (stereo unspecified) | inactive: -6.97%
16 | Cc1ccc(-c2cc3c(N4CCN(c5cc(C)ccc5C)CC4)nccn3n2)cc1 | inactive: 2.23%
17 | CCc1ccc(-n2c(=O)c3c(C)c(C(=O)N(C)C)sc3n(Cc3ccccc3F)c2=O)cc1 | inactive: 17.5%
18 | Cn1c(=O)c2sccc2n2c(CCCC(=O)Nc3ccc(Oc4ccc(Cl)cc4)cc3)nnc12 | inactive: -14.6%
19 | Cc1ccc(-c2nnc(SCC(=O)NCc3ccccc3)nc2-c2ccc(C)cc2)cc1 | inactive: -1.59%
20 | CNS(=O)(=O)c1cc(-c2nnc(Nc3cc(C)ccc3C)c3ccccc23)ccc1C | inactive: -24.8%
21 | CCOC(=O)c1cnc2ccccc2c1Nc1cccc(OC)c1 | inactive: -17.1%
22 | Cc1cc2c(cc3c(SCC(=O)Nc4cccc(Cl)c4C)nnc(C)n32)o1 | inactive: 4.42%
23 | CCc1ccc(C(=O)NC(Cc2c[nH]c3ccccc23)C(=O)OCC(=O)c2ccc(Br)cc2)cc1 (stereo unspecified) | inactive: 8.68%
24 | O=c1c2sccc2n(Cc2cc(=O)n3ccccc3n2)c(=O)n1-c1cccc(C(F)(F)F)c1 | inactive: 10.7%
25 | Cc1ccc2oc(-c3cccc(NC(=O)c4sc5c([N+](=O)[O-])cccc5c4Cl)c3)nc2c1 | inactive: 4.43%
26 | Cc1cnc(=O)[nH]c1SCC(=O)Nc1nc2ccccc2s1 | inactive: -0.783%
